# According to PubChem BioAssay AID588591 (National Center for Advancing Translational Sciences (NCATS), 2011):
# Screen size: about 390,000 compounds; about 4,700 (1.2%) were called active. Inconclusive results, whose numbers are uncertain, are shown with a selection of clear calls. The call rests on the fitted dose curve; in most records, active means well fitted inhibition curve with a large enough effect; inconclusive means small, poorly fitted or top-dose-only effect, or another doubt; inactive means no such curve, though single readings can be large or run the other way. Potencies of inconclusive entries are doubtful fits and often do not repeat.
# Biological target: DNA polymerase eta (Homo sapiens) (UniProt Q9Y253)
# UniProt Q9Y253, sequence (Q9Y253 whole entry, looked up): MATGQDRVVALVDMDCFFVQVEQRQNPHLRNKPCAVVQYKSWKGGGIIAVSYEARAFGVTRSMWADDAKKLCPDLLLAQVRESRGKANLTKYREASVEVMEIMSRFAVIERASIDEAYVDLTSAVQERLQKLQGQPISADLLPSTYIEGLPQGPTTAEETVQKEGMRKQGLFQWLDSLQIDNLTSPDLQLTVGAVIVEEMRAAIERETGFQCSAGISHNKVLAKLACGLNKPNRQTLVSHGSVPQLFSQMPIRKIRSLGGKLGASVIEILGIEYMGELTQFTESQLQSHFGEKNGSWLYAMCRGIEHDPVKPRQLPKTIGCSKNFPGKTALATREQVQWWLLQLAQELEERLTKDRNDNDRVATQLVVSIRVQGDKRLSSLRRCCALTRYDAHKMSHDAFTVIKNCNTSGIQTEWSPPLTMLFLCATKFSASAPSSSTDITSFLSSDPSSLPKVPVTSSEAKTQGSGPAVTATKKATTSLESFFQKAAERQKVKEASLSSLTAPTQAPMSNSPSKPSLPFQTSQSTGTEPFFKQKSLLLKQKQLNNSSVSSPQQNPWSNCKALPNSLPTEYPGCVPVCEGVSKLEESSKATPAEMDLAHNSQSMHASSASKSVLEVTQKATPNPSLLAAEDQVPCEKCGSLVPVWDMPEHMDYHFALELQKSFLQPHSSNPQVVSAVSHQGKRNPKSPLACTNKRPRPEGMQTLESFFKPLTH
# Experiment: qHTS for Inhibitors of Polymerase Eta
# Conditions: recombinant Pol eta, fluorescent DNA replication assay; series mostly up to 114 µM
# Summary of the method: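 Pol eta at 10 nM preincubated with compounds 15 min at room temperature; reaction started with fluorescent substrate (50 nM final) and read kinetically at 0 and 10 min.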
# Potency means the concentration at half of the fitted maximal effect; tags describe the fitted curve by direction and shape.
row,SMILES,Potency
1,COc1cc2c(cc1OC)-c1cc3ccc(OC)c(OC)c3c[n+]1CC2,inactive
2,N#C/C(=C(/O)c1ccc(-c2cccc([N+](=O)[O-])c2)o1)c1nc2ccccc2s1,active: 17.8 µM
3,CCN(CC)S(=O)(=O)c1cccc(-n2c(O)c(C=Nc3ccccc3C(=O)O)c3ccccc3c2=O)c1,"inconclusive: 50.1 µM [inhibitor, partial curve]"
4,Cn1c2ccccc2c(=O)c2c(=O)n(Cc3ccco3)c(COc3ccccc3)nc21,"inconclusive: 2.82 µM [inhibitor, full curve, poor fit]"
5,CCOC(=O)c1c(-c2ccc(C)cc2)csc1NC(=O)/C(C#N)=C/c1ccc(O)c(OC)c1,active: 28.2 µM
6,O=C(NNc1nc2c(F)cccc2s1)c1cc(=O)c2ccccc2o1,"inconclusive: 79.4 µM [inhibitor, partial curve, poor fit]"
7,CC(=O)NC1=NC(=O)/C(=C/c2cc(C)n(-c3cccc(C(=O)O)c3)c2C)S1,active: 3.98 µM
8,Oc1ccc(Br)cc1C1Nc2ccccc2S1 (stereo not drawn),inactive
9,O=C(/C=C/c1ccco1)Nc1ccc(-c2nc3ccccc3[nH]2)cc1,"inconclusive: 6.31 µM [inhibitor, partial curve, poor fit]"
10,Nc1ccc(O)c2c1C(=O)c1ccccc1C2=O,active: 8.91 µM
11,Cc1ccc(C2(C)NC(=O)N(CC(=O)Nc3ccc(-c4nc5ccc(C)cc5s4)cc3)C2=O)cc1 (stereo not drawn),inactive
12,O=C(CSc1nc2c([nH]c3ccccc32)c(=O)n1-c1ccccc1)Nc1cccc(C(F)(F)F)c1,inactive
13,Cc1nc(C)c(C(=O)Nc2nc3c(C)cccc3s2)o1,active: 25.1 µM
14,CC(=O)c1ccc(-c2ccc(/C=C(/Sc3n[nH]c(C)n3)C(=O)O)o2)cc1,active: 39.8 µM
15,CCOc1ccc(N(C(C)C(=O)Nc2cccnc2)S(C)(=O)=O)cc1 (stereo not drawn),inactive
16,COCCn1c(SCc2nc3sc(C(=O)OC)c(C)c3c(=O)[nH]2)nc2ccccc21,"inconclusive: 28.2 µM [inhibitor, single point]"
17,CCOC(=O)c1cnc2nc(NCc3ccc(OC)c(OC)c3)[nH]n2c1=O,active: 20 µM
18,CCCCn1c(SCC(=O)NCc2ccco2)nnc1-c1ccoc1C,active: 12.6 µM
19,CCOC(=O)/C=C1\SCC(=O)N1CC(=O)Nc1ccc(OC)c(OC)c1,inactive
20,CCCCCn1c(N)c(-c2nc3ccccc3s2)c2c([N+](=O)[O-])nn(CC)c(=O)c21,inactive
21,Nc1c(C(=O)Nc2nc3ccccc3s2)sc2nc(-c3cccs3)ccc12,active: 89.1 µM
22,Cc1c(NC(=S)NC(=O)c2sc3ccccc3c2Cl)cccc1C(=O)O,"inconclusive: 31.6 µM [inhibitor, partial curve, poor fit]"
23,Cc1c(Cl)cnc(NC(=O)COC(=O)CCS(=O)(=O)c2ccccc2)c1Cl,"inconclusive: 25.1 µM [inhibitor, single point]"

row,SMILES,Potency
1,CSCC[C@H](NC(=O)C1CCN(S(=O)(=O)c2ccc(C)cc2)CC1)C(=O)NCc1ccco1,"inconclusive: 28.2 µM [inhibitor, single point]"
2,Cc1nc(Nc2ccccc2O)c2oc3ccccc3c2n1,"inconclusive: 12.6 µM [inhibitor, partial curve]"
3,COc1ccc(NS(=O)(=O)c2ccc(N3CCOCC3)c(NC(=O)/C=C/C(=O)O)c2)cc1,"inconclusive: 35.5 µM [inhibitor, single point]"
4,O=[N+]([O-])c1ccc(/C=N/NC(=S)Nc2ccccc2C(F)(F)F)o1,"inconclusive: 31.6 µM [inhibitor, single point]"
5,Cc1cc(NC(=O)COC(=O)Cn2[nH]c(=O)c3ccccc3c2=O)c([N+](=O)[O-])cc1C,"inconclusive: 12.6 µM [inhibitor, partial curve, poor fit]"
6,CCOC(=O)C1=C(COC(=O)C(CC)Oc2ccccc2)NC(=O)NC1C (stereo not drawn),inactive
7,Cn1c(SCC(=O)Nc2ccc(C(=O)O)cc2)nc2scc(-c3ccccc3Cl)c2c1=O,inactive
8,COc1ccc(C2C=C(c3cccc(OC)c3)Nc3c(C(=O)Nc4ccccc4)cnn32)cc1 (stereo not drawn),inactive
9,O=C(NCCCN1CCOCC1)c1cc(-c2ccco2)nc2ccccc12,active: 11.2 µM
10,OCCN1CCN(c2nc(-c3ccccc3O)nc3ccccc23)CC1,inactive
11,Cc1cccc(N2CCN(C(=O)c3cccn4c(=O)c5cc(Cl)ccc5nc34)CC2C)c1 (stereo not drawn),inactive
12,CCOC(=O)C1=C(O)/C(=C/c2cn(CC(=O)N3CCCC3)c3ccccc23)SC1=Nc1ccccc1,"inconclusive: 20 µM [inhibitor, partial curve, poor fit]"
13,COc1ccc(N2CCN(c3oc(-c4ccc(OC)c(OC)c4)nc3C#N)CC2)cc1,"inconclusive: 15.8 µM [inhibitor, partial curve, poor fit]"
14,CCCCCCCc1c(C#N)c(N)[nH]c(=S)c1C#N,inactive
15,O=C(NCCO)c1ccc2[nH]c3c(c2c1)CCCC3,inactive
16,CCOC(=O)c1cc(S(=O)(=O)NCc2ccccc2)[nH]n1,inactive
17,COC(=O)c1ccc(NC(=O)c2ccc(C)cc2)o1,"inconclusive: 28.2 µM [inhibitor, partial curve, poor fit]"
18,COc1cc(C2c3cc4c(cc3OC(N3CCOCC3)C2C)OCO4)cc(OC)c1OC(C)=O (stereo not drawn),"inconclusive: 28.2 µM [inhibitor, partial curve, poor fit]"
19,O=C(c1ccc(Cl)cc1)N1CCC(c2ccncc2)CC1,inactive
20,CC1CCN(S(=O)(=O)c2cccc(-c3cn4cc(Cl)ccc4n3)c2)CC1,"inconclusive: 50.1 µM [inhibitor, partial curve, poor fit]"
21,O=C(CSc1ccc(-c2nc3ccccc3[nH]2)cn1)Nc1ccc(S(=O)(=O)NC2CC2)cc1,"inconclusive: 10 µM [inhibitor, partial curve]"
22,Cn1cnnc1SCC(=O)N1CCc2ccccc21,"inconclusive: 1.41 µM [inhibitor, full curve, poor fit]"
23,CC(=O)N1C(C)c2ccccc2C(C)(C)CC12CCCCC2 (stereo not drawn),"inconclusive: 79.4 µM [inhibitor, partial curve, poor fit]"

row,SMILES,Potency
1,COc1ccc(C(=O)Nc2ccc([N+](=O)[O-])cn2)cc1OC,"inconclusive: 25.1 µM [inhibitor, single point]"
2,Oc1ccc(/C=N/Nc2ccnc3cc(Cl)ccc23)cc1O,"inconclusive: 50.1 µM [inhibitor, partial curve]"
3,CN(C)c1ccc(/C=C2\CCC/C(=C\c3ccccc3)C2=O)cc1,"inconclusive: 89.1 µM [inhibitor, partial curve]"
4,COc1ccc(NC(=O)c2cc3c(-c4ccc(OC)c(OC)c4)nn(C)c3s2)cc1OC,"inconclusive: 35.5 µM [inhibitor, partial curve, poor fit]"
5,CCOc1cccc(NC(=O)/C(C#N)=C\c2cn(CC(=O)O)c3ccccc23)c1,"inconclusive: 50.1 µM [inhibitor, partial curve]"
6,COc1ccc2c(c1)N(C)/C(=C1/SC(=NCc3ccccc3)N(c3ccccc3)C1=O)S2,"inconclusive: 3.16 µM [inhibitor, partial curve, poor fit]"
7,COc1ccc(OC)c(N2C(=O)CC(NNC(=O)c3ccc4c(c3)OCO4)C2=O)c1 (stereo not drawn),inactive
8,O=C(O)c1cccc(-c2ccc(/C=N/NC(=O)C3COc4ccccc4O3)o2)c1 (stereo not drawn),active: 28.2 µM
9,Cc1ccc(NC(=O)CN(C)C(=O)c2cccc(S(=O)(=O)NCc3ccccc3)c2)cc1,inactive
10,CCCC(=O)Nc1cc(C(=O)O)ccc1Sc1ccccc1,"inconclusive: 89.1 µM [inhibitor, partial curve, poor fit]"
11,Cc1ccc(/C=C2\SC(=S)N(NS(=O)(=O)c3ccc(C)cc3)C2=O)cc1,"inconclusive: 89.1 µM [inhibitor, single point]"
12,O=C(O)C1Cc2ccccc2CN1C(=O)CCl (stereo not drawn),"inconclusive: 39.8 µM [inhibitor, full curve]"
13,COc1ccc(C(=O)OCc2cc(=O)n3nc(-c4cccs4)sc3n2)cc1,"inconclusive: 79.4 µM [inhibitor, partial curve]"
14,CCOc1ccccc1N(CC(=O)NCCSCc1ccco1)S(=O)(=O)c1ccccc1,"inconclusive: 31.6 µM [inhibitor, single point]"
15,O=c1cc(O)c2c(=O)n(-c3ccccc3)c3ccccc3c2o1,"inconclusive: 35.5 µM [inhibitor, single point]"
16,Cc1ccc(-c2csc3nnc(SCC(=O)Nc4cccc(C)n4)n23)cc1,"inconclusive: 14.1 µM [inhibitor, partial curve, poor fit]"
17,O=c1nc(/C=C/c2cc([N+](=O)[O-])ccc2Cl)cc(C(F)(F)F)[nH]1,active: 22.4 µM
18,O=C(COC(=O)c1ccccc1O)NCc1ccco1,active: 79.4 µM
19,CCCCCCN(CCCCCC)C(=O)Cc1c(-c2ccc(F)cc2)[nH]c2ccccc12,"inconclusive: 22.4 µM [inhibitor, single point]"
20,Cc1nc2ccccc2c(=O)n1NC(=O)c1c(O)c2c(n(CC(C)C)c1=O)CCCC2,"inconclusive: 79.4 µM [inhibitor, partial curve, poor fit]"
21,CSc1ccccc1C(=O)NCC(c1ccco1)N1CCCCC1 (stereo not drawn),"inconclusive: 89.1 µM [inhibitor, partial curve, poor fit]"
22,COC(=O)c1ccc(COc2ccc(/C=C(\C#N)c3nc4ccccc4[nH]3)cc2OC)o1,"inconclusive: 17.8 µM [inhibitor, partial curve, poor fit]"
